Test results: the supplement of paper PMC10369915
The other results are listed elsewhere or left out. Rule as the data show it: active = 3.2 or more and inactive = the rest. The signal is at background level for most entries.

Tests used:
Assay in all cases: enrichment score (SH2-bound / input frequency) (ratio); bacterial display of known human phosphotyrosine sites (pTyr-Var adds point mutants) read by sequencing; higher = stronger binding; tyrosines were phosphorylated by kinases first
Conditions in all cases: peptide library: pTyr-Var
SHP2 C-SH2 domain E139D = biological target: SHP2 C-SH2 domain E139D
[1] = biological target: SHP2 C-SH2 domain wild-type
SHP2 N-SH2 domain L43F = biological target: SHP2 N-SH2 domain L43F
SHP2 N-SH2 domain T42A = biological target: SHP2 N-SH2 domain T42A
SHP2 N-SH2 domain T52S = biological target: SHP2 N-SH2 domain T52S
[2] = biological target: SHP2 N-SH2 domain wild-type

Measured: enrichment score
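Also: displayed peptides selected on beads carrying the immobilized SH2 domain, with library peptides lacking any tyrosine serving as negative controls.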

PLTRSYIREKV [CYP2C8_Y243_A238P]
inactive: SHP2 C-SH2 domain E139D 0.475 | [1] 0.463 | SHP2 N-SH2 domain L43F 0.621 | SHP2 N-SH2 domain T42A 0.371 | SHP2 N-SH2 domain T52S 0.429 | [2] 0.592

GFAGKYIAMVM [CYP19A1_Y441_C437Y_YF]
inactive: SHP2 C-SH2 domain E139D 0.879 | [1] 0.821 | SHP2 N-SH2 domain L43F 0.818 | SHP2 N-SH2 domain T42A 0.787 | SHP2 N-SH2 domain T52S 1.06 | [2] 1.65

MENFIYESMQF [CYP19A1_Y361_R365Q_YF]
inactive: SHP2 C-SH2 domain E139D 0.954 | [1] 1.16 | SHP2 N-SH2 domain L43F 1.02 | SHP2 N-SH2 domain T42A 0.887 | SHP2 N-SH2 domain T52S 1.04 | [2] 1.04

NRVEIYDKTVE [CYFIP1_Y108_E109D]
inactive: SHP2 C-SH2 domain E139D 0.916 | [1] 0.812 | SHP2 N-SH2 domain L43F 0.868 | SHP2 N-SH2 domain T42A 0.846 | SHP2 N-SH2 domain T52S 0.87 | [2] 1.16

MENFIYESMRY [CYP19A1_Y361]
inactive: SHP2 C-SH2 domain E139D 1.13 | [1] 1.14 | SHP2 N-SH2 domain L43F 1.2 | SHP2 N-SH2 domain T42A 1.06 | SHP2 N-SH2 domain T52S 1.3 | [2] 1.1

ALTRSYVREKV [CYP2C8_Y243_I244V]
inactive: SHP2 C-SH2 domain E139D 0.397 | [1] 0.334 | SHP2 N-SH2 domain L43F 0.464 | SHP2 N-SH2 domain T42A 0.7 | SHP2 N-SH2 domain T52S 0.335 | [2] 0.814

MENFIYESMQY [CYP19A1_Y361_R365Q]
inactive: SHP2 C-SH2 domain E139D 1.15 | [1] 0.86 | SHP2 N-SH2 domain L43F 1.03 | SHP2 N-SH2 domain T42A 0.892 | SHP2 N-SH2 domain T52S 0.977 | [2] 0.989

TVLGEYASPKG [CYP24A1_Y407_L409S]
inactive: SHP2 C-SH2 domain E139D 0.471 | [1] 0.545 | SHP2 N-SH2 domain L43F 0.526 | SHP2 N-SH2 domain T42A 0.449 | SHP2 N-SH2 domain T52S 0.432 | [2] 0.574

VKKKLDEEIDQ [CYP17A1_Y329_Y329D]
inactive: SHP2 C-SH2 domain E139D 0.666 | [1] 0.588 | SHP2 N-SH2 domain L43F 0.726 | SHP2 N-SH2 domain T42A 0.679 | SHP2 N-SH2 domain T52S 0.802 | [2] 0.763

MENFIYESMRF [CYP19A1_Y361_YF]
inactive: SHP2 C-SH2 domain E139D 1.31 | [1] 1.33 | SHP2 N-SH2 domain L43F 1.33 | SHP2 N-SH2 domain T42A 1.23 | SHP2 N-SH2 domain T52S 1.39 | [2] 1.37

GYAGKYIAMVM [CYP19A1_Y441_C437Y]
inactive: SHP2 C-SH2 domain E139D 1.08 | [1] 1.06 | SHP2 N-SH2 domain L43F 0.958 | SHP2 N-SH2 domain T42A 0.942 | SHP2 N-SH2 domain T52S 0.905 | [2] 1.06

TKFRNYLIPNG [CYP2C8_Y379_K383N]
inactive: SHP2 C-SH2 domain E139D 0.685 | [1] 0.662 | SHP2 N-SH2 domain L43F 0.766 | SHP2 N-SH2 domain T42A 0.75 | SHP2 N-SH2 domain T52S 0.703 | [2] 0.746

NLMPAYHKCIQ [CYP21A2_Y190_Y191H]
inactive: SHP2 C-SH2 domain E139D 0.922 | [1] 1.12 | SHP2 N-SH2 domain L43F 1.33 | SHP2 N-SH2 domain T42A 0.881 | SHP2 N-SH2 domain T52S 0.835 | [2] 1.17

VFLARYGPAWR [CYP2D6_Y124]
inactive: SHP2 C-SH2 domain E139D 0.445 | [1] 0.502 | SHP2 N-SH2 domain L43F 0.434 | SHP2 N-SH2 domain T42A 0.398 | SHP2 N-SH2 domain T52S 0.535 | [2] 0.483

GPIFRYDSGGA [CYP11B1_Y81_L83S]
inactive: SHP2 C-SH2 domain E139D 0.978 | [1] 0.86 | SHP2 N-SH2 domain L43F 0.817 | SHP2 N-SH2 domain T42A 0.84 | SHP2 N-SH2 domain T52S 0.924 | [2] 0.896

VQNIVYRTASI [CYP39A1_Y102]
inactive: SHP2 C-SH2 domain E139D 0.669 | [1] 0.73 | SHP2 N-SH2 domain L43F 0.717 | SHP2 N-SH2 domain T42A 0.605 | SHP2 N-SH2 domain T52S 0.777 | [2] 0.797

KLQKKYGPIYS [CYP17A1_Y60]
inactive: SHP2 C-SH2 domain E139D 0.822 | [1] 0.847 | SHP2 N-SH2 domain L43F 0.615 | SHP2 N-SH2 domain T42A 0.524 | SHP2 N-SH2 domain T52S 0.724 | [2] 0.75

RMSQRYRDVLQ [CYP1A2_Y72_G73R]
inactive: SHP2 C-SH2 domain E139D 0.239 | [1] 0.193 | SHP2 N-SH2 domain L43F 0.339 | SHP2 N-SH2 domain T42A 0.186 | SHP2 N-SH2 domain T52S 0.305 | [2] 0.345

KAPPTYDNVLQ [CYP3A4_Y347_T349N]
inactive: SHP2 C-SH2 domain E139D 0.931 | [1] 0.828 | SHP2 N-SH2 domain L43F 0.816 | SHP2 N-SH2 domain T42A 0.975 | SHP2 N-SH2 domain T52S 0.92 | [2] 0.798
